The source gives no read counts; variants with many changes may rest on few reads.
B1: LINE1-full (parent)
chain: UACGUAGGUGGUUUUCCCCUGAUAGUGCUAAGGGGGCCUGGAAGUUUGGACUGGGCAGAGCUCAACACAGCGUGGCAAAGUGGCUGUGGCUAGACUGCCUCUCUGGAUUCCUCGUCACUCAGCAGGGCAUCUCUGAGAGAAAUGCC

Variants of: B1
Assay: self-cleavage, relative activity (ratio to wild type); higher = more cleavage; in vitro, sequencing; the parent is a self-cleaving ribozyme
In the case of G34U A50G A67U U73A A107G, the self-cleavage is reported as 0. G35A A94G C113U gave a self-cleavage of 0.1. With G34U U115C A136G the self-cleavage was 2.33. In the case of G32U U47C A65C, the self-cleavage is reported as 0.1. In the case of C37A U108C U132C, the self-cleavage is reported as 1.87. G36U A64G A69G A79G gave a self-cleavage of 0.07. For G32A A43G U100C A136G, the self-cleavage was 1.05. For G32U A94G U143A, the self-cleavage was 0.36. Variant G35U C37U A65G has a self-cleavage of 0. Work on G34A U85C A136G A142G yielded a self-cleavage of 0. G33A U112C A117C A141G showed a self-cleavage of 2.73. For C37A U39C G53A A59U A94U U108C A117C, the self-cleavage was 0.02. G36A A69G A117U showed a self-cleavage of 0.59. A31G G105U A136U showed a self-cleavage of 1.14. Work on A31U U96C U104A yielded a self-cleavage of 0.1. In the case of G32A U39C A59U, the self-cleavage is reported as 0.54. G34A U62G A136G gave a self-cleavage of 0.06. A31G A78G U132C gave a self-cleavage of 1.23. For G32U U62A U91C, the self-cleavage was 0.01. G33C U109C A117U showed a self-cleavage of 1.53. Work on G34A A121U A124U yielded a self-cleavage of 1.21. G36A A77G A142G showed a self-cleavage of 2.16. A31G A43G A142G gave a self-cleavage of 1.76. Work on C37A U73A U96A yielded a self-cleavage of 0.04. For A31G C38A U115C A142U, the self-cleavage was 1.18. A31G A57G A124G gave a self-cleavage of 0. In the case of G32A A57U A77G, the self-cleavage is reported as 0.17. A31G U85A U115A A141G U143C showed a self-cleavage of 0.11. With A31U A59U G89U the self-cleavage was 0.01. A31G A43G G114C U143C showed a self-cleavage of 1.13. A31U U100C U143C gave a self-cleavage of 2.07. G32A A69G C71U U112C A129G gave a self-cleavage of 0. With G32A U100C A117G A129G the self-cleavage was 1.53. With G36A A78U U104C the self-cleavage was 2.47. With C37A A69G C113U A138G the self-cleavage was 0.36. With G36U A43U U91C U115C A136G the self-cleavage was 0.45. G34U A124G A140G showed a self-cleavage of 0.2. In the case of G36U A77G A107G, the self-cleavage is reported as 2.17. A31G C51U A59G A94G U100C U134C showed a self-cleavage of 0. G33A G48A U143A gave a self-cleavage of 1.03. In the case of G34A A57G C101U U108C, the self-cleavage is reported as 1.39. Work on G35U U46C A121U A136U yielded a self-cleavage of 1.49. In the case of G35A U73C U115A, the self-cleavage is reported as 1.49. Variant G33A U47G U96C U104C has a self-cleavage of 0.14. G32U A79G U100C A117U showed a self-cleavage of 2.73. In the case of A31C U73A C76U A124G U130C, the self-cleavage is reported as 2.35. In the case of G32A U39C A50G, the self-cleavage is reported as 0.96. For G36U A64U A77G A78G U112C, the self-cleavage was 0.52. G34U A67G A92G A129U showed a self-cleavage of 0. Work on G36C U73C U100C yielded a self-cleavage of 0. Variant G36A A57C U108C A141G C146U has a self-cleavage of 0.11. For G36C U45A A129G, the self-cleavage was 1.02. With G36A U47C A141G the self-cleavage was 0.33. Variant G34A U112C U115A has a self-cleavage of 1.06. G33A U47C A59G U102C gave a self-cleavage of 0. G33U U81C U85C A141G showed a self-cleavage of 0.1. With A31U U119C A142G the self-cleavage was 2.19. A31G C103A U134A gave a self-cleavage of 0.9. In the case of A31U A43G A65U U73C A121G, the self-cleavage is reported as 0. With G33U U46C U102C the self-cleavage was 2.37. Variant G34C U73C U100C has a self-cleavage of 2.83. G32A U119C A124U A142G showed a self-cleavage of 2.17. G34U A79G U96C gave a self-cleavage of 0.27. For A31U G34U U85A A136G, the self-cleavage was 0.14. With G32A U96A C128A the self-cleavage was 0. C37G A57G A64U showed a self-cleavage of 0.12. For G34U A67G A141G, the self-cleavage was 0.43. Work on A31G G41A U47A A50U C56U A57G yielded a self-cleavage of 0.06. In the case of A31U U87C A117C, the self-cleavage is reported as 0.61. A31U U73C C76U U134C showed a self-cleavage of 1.86. Variant G36A A77G A136G has a self-cleavage of 1.9. Variant G35U A77U U134G has a self-cleavage of 1.69. G35A C71U A107G showed a self-cleavage of 0.85. Work on G36A A129U U130A yielded a self-cleavage of 0.95. With G32A A57G U115C A138U the self-cleavage was 2. With G33A G35U A42G A65G A78U G88A U100C the self-cleavage was 0.01. G34U A57G A69G A78U A141G showed a self-cleavage of 0.71. G35A U47A U143A gave a self-cleavage of 1.06. With G32A U47C A50G A69U U96C the self-cleavage was 0. Variant G36C U87C U132C has a self-cleavage of 0.15. Variant A31C G35C G44A U134C has a self-cleavage of 1.95. G35A U62C A136G showed a self-cleavage of 0.02. In the case of A31U U62C G89A, the self-cleavage is reported as 0.08. Variant G32U A43G U81C has a self-cleavage of 1.77. In the case of G34A U104C U119C G125A, the self-cleavage is reported as 0.67. Work on G32A U81A U119C A141G yielded a self-cleavage of 2.03. In the case of G35U A57G U96G, the self-cleavage is reported as 0.1. G34U A42U U45C U52A A77U showed a self-cleavage of 0.93. In the case of G32U U62C U143A, the self-cleavage is reported as 0.1. In the case of G36U U39A A138G, the self-cleavage is reported as 1.3. G36C U45C U96G U134C showed a self-cleavage of 0. Variant A31G A57G G139C has a self-cleavage of 0.38. C37A A69G G72A A94G C103U U115C U130C A138U gave a self-cleavage of 0. In the case of A31U A57U A121G, the self-cleavage is reported as 0.12. For G36U U39A A64G U85C A92G, the self-cleavage was 0. Variant A31G U115A A121G A138G has a self-cleavage of 1.38. Variant G32A G54U A121G has a self-cleavage of 1.5. G32U U47A A57G U119C gave a self-cleavage of 0.94. With G32C U45C C71U A94G A124G the self-cleavage was 0. Variant A31U U85C A121G A140G has a self-cleavage of 0.26. Variant A31U U39C A57G has a self-cleavage of 0. G33U A50G A141G gave a self-cleavage of 1.47. G33A U46C U132A showed a self-cleavage of 1.48. Variant G32A U45A U109A has a self-cleavage of 1.34. A31G G49A A107G U130A showed a self-cleavage of 1.23. G32U U73C U91A gave a self-cleavage of 0.81. In the case of A31U U45C C103U U104C, the self-cleavage is reported as 0.6. For G33A U46C U112C A124G, the self-cleavage was 0.18. In the case of A31G U130C A140G, the self-cleavage is reported as 0.63. G35A A69G A79G showed a self-cleavage of 0. In the case of G35U U39A U85C C113U, the self-cleavage is reported as 0.11. With G34A U46C G75C the self-cleavage was 0.64. With G35A A117G U132C the self-cleavage was 1.24. With A31U U39A A121G the self-cleavage was 0.61. With G36U A59G A138G the self-cleavage was 0.06. With G34A A57G U91A U102C G105A the self-cleavage was 0.18. G36C A42G A67G G80U G86A gave a self-cleavage of 0.02. Work on A31G U46C U96C C110U yielded a self-cleavage of 0. Work on A31G A79G A117U A142G yielded a self-cleavage of 1.09. Variant A31U U73C A121U has a self-cleavage of 1.97. For G35U A43G U115C A142G, the self-cleavage was 1.46. Work on G34U A67G A79G A117G yielded a self-cleavage of 0.3. Variant G32A U39C U85C U104A has a self-cleavage of 0.23. Work on A31G U39C A141G yielded a self-cleavage of 1.01. In the case of G34A A67G A107U A117C, the self-cleavage is reported as 0.21. G35U U62C U87A C90U A92G gave a self-cleavage of 0.03. G32U G33A U108C gave a self-cleavage of 0.84. For G33A U73C G126A, the self-cleavage was 1.51. G35A G54A U96A A142G U143C gave a self-cleavage of 0.01. G32A G114U A129G U143A showed a self-cleavage of 0.94. Work on A31U U102C C133U A141G yielded a self-cleavage of 1.15. A31U A59G C145U gave a self-cleavage of 0. With A31G U39C U119A the self-cleavage was 1.75. Work on G34A A43G U112A A129G yielded a self-cleavage of 1.17. For G34A U85C U130C A141G, the self-cleavage was 0.28. A31U U62C U96A A121G showed a self-cleavage of 0.04. For A31U U45A A69G A138G, the self-cleavage was 0.4. In the case of G32A G74A U104C U130C, the self-cleavage is reported as 1.04. A31C U52C A79G U96C C99A gave a self-cleavage of 0.32. Work on G34A A42G A50U U91A A92G A129U yielded a self-cleavage of 0.1. For A31U A42G U62C G88A, the self-cleavage was 0.06. Variant G34U G72A U108C has a self-cleavage of 0.44. G33U U46C A57U A141G showed a self-cleavage of 0.54. For G36C U47C U134C, the self-cleavage was 2.06. In the case of G35U C101U A129G, the self-cleavage is reported as 1.24. A31G A42G U85A A94G gave a self-cleavage of 0.28. With A31U C101U U102C the self-cleavage was 0.59. Work on A31G A94U A124U A142G yielded a self-cleavage of 0.21. With G34A U62C U96C U109C the self-cleavage was 0.04. Work on G35A A42G U62C A141G yielded a self-cleavage of 0.05. In the case of G36A U112A A117C A121G, the self-cleavage is reported as 1.97. Work on A31U G33A U91C U102C yielded a self-cleavage of 0.6. G33U G54U A57G C103A A124G showed a self-cleavage of 0.06. Variant C37A U39C U87A has a self-cleavage of 0.05. With A31G A94C A142G the self-cleavage was 0.33. A31G U46A C51A showed a self-cleavage of 1.05. With G35U C56U U62A U85C the self-cleavage was 0.03. A31G A92G A94G U109A gave a self-cleavage of 0. For A31U U62C U91C U96A G127A A142G U143C, the self-cleavage was 0. In the case of A31U A77U A79G U115C C120U A141G, the self-cleavage is reported as 1.12. Work on G35A A94G A138U yielded a self-cleavage of 0.12. G32A A42U A136G gave a self-cleavage of 1.22. For G34U U45C U46A, the self-cleavage was 1.67. For G36A A64G U108C, the self-cleavage was 0.29. Variant G33A U62C U96A A124G G135A has a self-cleavage of 0.04. With A31G A65G A142G the self-cleavage was 0. With A31G G33A U112A U132C the self-cleavage was 1.69.

From the RNAGym collection of RNA variant scans (doi:10.7554/elife.90254)
